Reference: article PMC4207660, “Identification and Characterization of Hundreds of Potent and Selective Inhibitors of Trypanosoma brucei Growth from a Kinase-Targeted Library Screening Campaign” (PLoS Neglected Tropical Diseases, 2014)

Tests used:
T. brucei = type: cell-based, Trypanosoma brucei brucei
Procedure: 100 nL per well from master plates were stamped in final assay black, clear-bottom 384-well Greiner microplates, including controls of 0% response (DMSO) and 100% response (2 μM Pentamidine): the final assay concentration was 20 μM. Plates containing DMSO were included randomly in the assay, to assess quality through all process. […] After 18 hours incubation, plates were centrifuged in a centrifuge (Beckman Coulter) for 5 min at 500 g, to sediment the cells, supernatant was aspirated with a Cybio-Well dispenser (Cybio), and 40 μL/well of fresh prewarmed HMI-9 were added: this cycle was performed three times. After the last cycle, 10 μL/well of cells suspension were aspirated by Cybio-Well equipment and dispensed over 40 μL of fresh prewarmed HMI-9 in “recovery plates”: calculated maximal residual concentration was 32 nM. […] Assay […] quality was determined by Z' score and validated data set were analyzed with ActivityBase software. As previous described percentage of inhibition was calculate for each concentration based on controls. A 4-parameter equation was used to fit the dose-response curves and pEC50 determination. The potential effect of residual drug remaining after washes was evaluated by performing the same protocol with standard trypanocidal drugs (such as suramin and diminazene) and negligible effect was observed. […]

HepG2 cells = test: Cytotoxicity assay (Cell Titer Glo, 48 h); conditions: HepG2 cells, 48 h
Procedure: This assay was used as selectivity assay, and selected hits from the primary were test in dose response concentration against HepG2 in order to identify the level of host cell cytotoxicity. Dose response starting at 10 mM and with 3-fold dilutions for 11 points, were made in 1,536-well master plates. 50 nL per well from them were stamped in final assay plates. The human biological samples were sourced ethically and their research use was in accord with the terms of informed consent.
Cell density was adjusted to 60,000 cells/mL as working concentration in prewarmed Eagle's MEM medium. Seeding density was be checked to ensure that new monolayers are not more than ∼ 50% confluent at the time of seeding (typically 3,000 cells per well), before completing preparation of plates. […] Viability was determined by Cell Titer Glo Kit (Promega) according to manufacturer's instructions: briefly, reconstituted Cell Titer Buffer was equilibrated to room temperature prior its use and 5 µL per well were dispensed with a Multidrop Combi Reagent Dispenser. Contents were mixed on a plate orbital shaker and incubated for 10 min at room temperature, to allow the signal to stabilize before luminescence reading on ViewLux Plate Reader (Perkin-Elmer).
Raw Luminescence data from the ViewLux reader were uploaded into GSK HTS database (ActivityBase). […]

ChromlogD assay = conditions: pH 7.4
Procedure: The Chromatographic Hydrophobicity Index (CHI)[22] values were measured using reversed phase HPLC column (Luna C18 (2), Phenomenex, UK) with a fast acetonitrile gradient at starting mobile phase of pH = 7.4. CHI values are derived directly from the gradient retention times by using a calibration line obtained for standard compounds. The CHI value approximates to the volume % organic concentration when the compound elutes. […] The average error of the assay is ±3 CHI unit or ±0.25 ChromlogD.

[1] = system: T. brucei brucei parasites (Lister 427 strain); test: Dose response growth inhibition assay (resazurin, 72 h); type: cell-based; conditions: Trypanosoma brucei, 72 h; read-out: pEC50 (converted)
Procedure: Greiner sterile black clear bottom 384-well assay plates were pre-dispensing with 200 nL of compound in each well, from master plates at 1 mM (100% DMSO) containing selection from the GSK compound collection. Controls of 0% response (control 1, 200 nL of 100%DMSO) and 100% response (control 2, 200 nL of 1 mM pentamidine) were included in each assay plate in columns 6 and 18, respectively. Plates containing 200 nL of 100% DMSO were included randomly in the assay, to assess quality through all process. […] After this period, 10 µL of 200 µM resazurin solution in prewarmed HMI-9 were added to each well, and plates were allowed to incubate 2 hours more prior fluorescence reading in a Wallac EnVision Multilabel Plate Reader (Perkin-Elmer). Raw fluorescent data from the Envision plate reader were uploaded into GSK HTS database (ActivityBase). Activity of each well was normalized as a percentage of inhibition per-plate basis using the following equation: [drawing 1]
For dose-response experiments, serial compound dilutions of selected hits from the primary campaign were plotted against compound concentration. Dose response master plates were prepared by 3-fold dilutions (starting with 10 mM DMSO stock solutions), providing 11 concentrations. From these master plates, 200 nL per well was stamped in final assay plates, including the same controls describe in the primary single shot assay. […]

[2] = reversed-phase HPLC column (Luna C18 (2))

Row | Structure (SMILES) | Cidal? (T. brucei) | pTC50 (HepG2 cells) | logD (ChromlogD assay; [2]) | EC50 [1] [µM] | logD (ChromlogD assay)
1 | O=C(Nc1ccncc1)c1ccc([N+](=O)[O-])o1 [NEU-0001094] | N (No) | 4.23 | 1.64 | 0.562 | 
2 | CN[C@@H]1C[C@H]2O[C@@](C)([C@@H]1OC)n1c3ccccc3c3c4c(c5c6ccccc6n2c5c31)C(=O)NC4 [NEU-0001095] |  |  |  |  | 3.13
3 | O=c1nc(-c2ccccc2)c2cc(-c3ccncc3)ccc2[nH]1 [NEU-0001101] | N (No) |  | 3.86 | 0.832 | 
